Laboratory results as given in the RNAGym collection of RNA variant scans (doi:10.1073/pnas.2313332121).
Variants at the floor of the assay are shown more often than the library holds them.

B1: TPR 5TU (parent)
chain: GGAUCUUCUCGAUCUAACAAAAAAGACAAAUCUGCCACAAAGCUUGAGAGCAUCUUCGGAUGCAGAGGCGGCAGCCUUCGGUGGCGCGAUAGCGCCAACGUUCUCAACUAUGACACGCAAAACGCGUGCUCCGUUGAAUGGAGUUUAUCAUG

Variants of: B1
Experiment: polymerase ribozyme fitness, log enrichment relative to wild type (log ratio); higher = more active; in vitro selection for triplet polymerase activity
Summary of the method: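 Input and output libraries were sequenced on Illumina after a single in vitro selection round, run in triplicate on PCR-built, transcribed mutant libraries of each subunit of a heterodimeric triplet polymerase ribozyme. Selection annealed libraries to a biotinylated primer, the partner subunit and triplets, incubated them frozen at −7 °C, then gel-excised extended constructs for streptavidin-bead capture and RT-PCR. Genotypes with ≥10 input reads and ≥1 read per output were kept. Fitness is the logarithm, taken in base 2, of genotype enrichment divided by wild-type enrichment, using inverse-variance-weighted replicate averages.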

Polymerase ribozyme fitness (log ratio), ≤ -4.2:
G59U G84U C105G
G59U U78A C87U C93G
A60C A64U G84A C99U U135A
A60C C75G G140C
A60C C85G C99A C103U C118G
A60C C85G C116U
A60C G62A C75U C79A C85A C114U C125U
A60C G67C A91G C96U
A60C G81A U90G C95U
A60C G88U G141C U146G U151C
A60G A137U U139G G141A
A60G C76U C93G C99G G141U
A60G C79U G83A G94C C108U U109A U148G
A60G C99G C105A C125G
A60G C114U U151C
A60G G74A C87A G88C
A60G G80C G88U A98G G117A A119G A121C
A60G G84U U90C
A60G G92A C99G G140C
A60U A73C G94C G100A A107U
A60U A91U A142C U145G
A60U C72A A113C A120G
A60U C95G C96A C149G
A60U C99A A138G G143C
A60U C99G U139A G141C U148C
A60U G67C A73G C103G U146A
A60U G68C C87G U102A U104G
A60U G83A A107C G133C
A60U G83A C132U A150C
A60U G92A U127C
A60U U77A C79U C85A
U61A A73G C93G A137G
U61A A73G G83A A115C
U61A A110G
U61A C69G C87U A110U
U61A C72G
U61A C76U U102C A106C
U61A C79U G84U C85G C118U A119G C129A G143C U148G
U61A C85G C132G
U61A C87U A115G C118A
U61A C99U U127A
U61A G62C A64C G84A C116G C118A
U61A G65A G67C G84U C96G U135G
U61A G67C A142C U144A
U61A G67C G88A
U61A G68C C79U C93U U139C
U61A G70U U90C U146G
U61A G92U A150C
U61A U82G G83U A89G G92C
U61A U109C
U61C A121G U139G G140A
U61C C69A G81A C95G
U61C G70C G84C
U61G A89C C93A C103A
U61G C87G C114G A115U U146A
U61G C87G C118A C125G A150U
U61G G62C C99U U134C
U61G G68A C95A A138C
U61G G71A C96G U144C
U61G G74C
U61G U90A C103G C118A A120U
G62A A64G
G62A A64G A73G C87G C96U C132A
G62A A73U C108G U139G
G62A C72G A122C C123A
G62A C76U U78G C96A U146C G152U
G62A C108A C125A G140C
G62A G67C G94A C95A A121C C149G
G62C A66G C87A C95U U146A
G62C C63U G68C U139A
G62C C85A U90G G141U A142C
G62C C93G A150U
G62C G67A
G62C G100U
G62C U82G G86U C108A
G62C U130A
G62U A66G
G62U G71A U77C G84U A110U C149A
G62U G84U C93U A107U
G62U G100U C103G C108G
C63A A66G C93U
C63A A91G U102A
C63A C69U G84U A150G
C63A C75A G92A
C63A C103G C105A
C63A G65C A66U G80U C87U G94C A110G C125G A137G G141C
C63A G65U G92C
C63A G100A
C63U C69G C85G A98G U104G G136C
C63U C96U C105A A110G
C63U G65A C87A U134C
C63U G70C U144C
C63U G74A A107U U127C
C63U U77C G128U A138G U146C
C63U U78G G88C C125G
A64C C72A C95U C116G A121C A138C
A64C G71A C93A A122G
A64C G81A G83A
A64C U82A C103G
A64G A89G A119U U146C
A64G A91U A97C C108U
A64G A91U C125A
A64G G67C A91G C93G C105U U151C
A64G G68A G86U C96A C123A
A64G G68U
A64G G80A G84U G100U A121G C123A
A64U A66C G88U A119G U148C
A64U C85A
A64U C85G U135C U144G A150U
A64U G68A C87A G88A G124C
A64U G71A C96G C99G G100U G128U G143A
G65A A66C G67C C87G
G65A A66G G70A C85U G86U G124U C131A
G65A C75A C87U C114U
G65A C75G C76U C95U C105A A121U
G65A C96A C103G A150U
G65A G70A C85G A106G U109A G117C U146C
G65A G84U A91G C103U
G65A G92A
G65A G128A
G65C A73U G81U C85G A89U C95G
G65C C85A
G65C C87U
G65C G68C A106G
G65C G83C G126U
G65U A97C C99G C125U
G65U G83A C105U G128U
G65U G83U A142U
G65U G84A G126A
G65U U139A
A66C A73G G80C A91C C118A
A66C A73G U102G
A66C C79A C103G C149U
A66C C85G C95U
A66C C93G
A66C C93G A107U
A66C C95U
A66C G86U U90C C108U U151A
A66C U78C
A66C U82G C96U C118G G143C
A66C U90A A91U U101G U102A G126U
A66C U134G
A66C U135G
A66G C85A A122C
A66G G83A A89C G100C C103G C114U A115U G124U
A66G U77G C85G C93G G133C U144A A147C
A66G U78C A138G
A66U A73G C85G A113G U144C
A66U C75G C85U G94A G143C
A66U C76U U101G C108G U146A
A66U C85U A115U U139G U148C
A66U C87U
A66U C99U
A66U C123U G126C U139G G143U
A66U G68U U145G U146C
A66U G74U C149G
A66U G83U C85A C105A A106U C131G G143C
A66U G84U A97U C118U C149A
G67A C75G G83U G128U
G67A C87A A110U A121G
G67A C93G G152U
G67A C93U C116G U127C
G67A G68A C95A A119U C129A A138G C149A
G67A G84A G133U A147C
G67A G92A
G67C C79U A91U U144A
G67C G71C G86U C116U G133U G136U
